In PubChem BioAssay AID652104 (National Center for Advancing Translational Sciences (NCATS), 2013):
Hit rate of the full screen: of about 410,000 compounds, about 7,200 (1.8%) were called active. Inconclusive results, whose numbers are uncertain, are shown with a selection of clear calls. Calls follow the shape of the dose curve; as a rule, active = well fitted activation curve with a large enough effect; inconclusive = small, poorly fitted or top-dose-only effect, or another doubt; inactive = no such curve, though single readings can be large or run the other way. A potency beside an inconclusive call is a rough fit, not a confirmed value.

Test: qHTS of TDP-43 Inhibitors; also: nearly all actives have a fitted effect of over 50% in size; as to growth rescue (activation): % of control where 0% means no effect
Conditions: TDP-43 expressing yeast growth rescue, BacTiter-Glo, 24 h; growth rescue (activation): at 46.1 µM (top of the series) unless noted
Source text: The goal of this project is to identify new chemical probes capable of reversing the toxicity associated with TDP-43 which is associated with frontotemporal lobar degeneration and amyotrophic lateral sclerosis. These compounds will provide a complementary approach to deciphering the tangled mechanisms of toxicity and protection that we have uncovered through genome-wide genetic screens and are beginning to uncover in a large-scale proteomics analysis with mass spectroscopy.
To this end, a miniaturized assay was developed to be screened against the Molecular Libraries Small Molecule Repository (MLSMR) to discover TDP-43 inhibitors. Please note that in the set-up this yeast-based assay compounds that inhibit as TDP-43, have a read-out as activators.
NIH Chemical Genomics Center [NCGC]
NIH Molecular Libraries Probe Centers Network [MLPCN]
Assay Submitter (PI): Susan Lindquist, Whitehead Institute/MIT
Dispense 2.5 microL yeast galactose medium per 1536-well plate, pin compound, dispense 2.5 microL TDP-43 expressing yeast in galactose medium at OD600=0.02 (pregrown in raffinose medium to mid-log phase) per well, incubate for 24 hr at 30 deg C, and cell growth will be measured using 5 microL of Bactiter/Glo reagent to entire plate and read using Luminescence Protocol in ViewLux.
Potency is read from the fitted curve at half-maximal effect; tags tell the direction and shape of the fitted curve.

Potency, active:
O=C(O)/C=C/c1ccccc1Oc1ccccc1 17.8 µM
CN(Cc1ccccc1)c1ncnc2onc(-c3ccc(F)cc3)c12 35.5 µM
CCOc1cc2c(cc1/C=C/C(=O)O)OC(C)C2 (stereo not given) 22.4 µM
Cc1c(C(=S)Nc2ccccc2)cnn1-c1ccc([N+](=O)[O-])cc1 12.6 µM
COc1ccccc1C(=O)N1CCN(c2nc3cc(C)cc(C)c3cc2C#N)CC1 11.2 µM
COc1ccc(OC)c(C(=O)COC(=O)c2ccc([N+](=O)[O-])o2)c1 22.4 µM
N/C(=N\OC(=O)CCC1CCCC1)c1ccc(Br)cc1 6.31 µM
COc1ccc(C(C)(O)c2nc(-c3csc4ccccc34)cs2)cc1 (stereo not given) 22.4 µM

Potency, inconclusive:
Cc1ccc(OCCn2c(=S)[nH]c3ccccc32)c(C(C)C)c1 15.8 µM [activator, single point]
Cc1cccc(C(=O)NC2CCCCCCC2)c1 10 µM [activator, partial curve, poor fit]
Cc1cc(-c2ccccc2)n(-c2ccccc2)n1 3.55 µM [activator, single point]
c1ccc(CCNCc2cccs2)nc1 3.55 µM [activator, partial curve]
O=C(CSc1nccn1Cc1ccc(Cl)cc1)Nc1ccc2c(c1)OCCO2 3.16 µM [activator, single point]
CCOC(=O)c1c(-c2cccs2)csc1NC(=O)CN(CC)CC 12.6 µM [activator, single point]
Cc1noc(C)c1CSc1nc2ccccc2c(=O)n1-c1ccccc1 17.8 µM [activator, single point]
COc1cccc(C(=O)/C=C2\Sc3ccccc3N2C)c1 12.6 µM [activator, single point]
Cc1ccccc1NC(=O)Cc1nc(COC(=O)c2nc(Cl)ccc2Cl)cs1 14.1 µM [activator, single point]
COc1ccc(NC(=O)c2ccc(-c3ccc(F)cc3)o2)cc1OC 11.2 µM [activator, partial curve]
O=C(c1ccncc1)N(c1ccc2oc3c(c2c1)CCCC3)S(=O)(=O)c1cccc([N+](=O)[O-])c1 25.1 µM [activator, partial curve]
Cc1ccc(C2=NN3C(C(=O)c4ccccc4)Oc4ccccc4C3C2)cc1 (stereo not given) 31.6 µM [activator, single point]
COc1ccc(CC(=O)O/N=C(\N)c2ccc(Br)cc2)cc1OC 6.31 µM [activator, full curve]
CNC(=O)C[C@H]1C(=O)N(c2ccc(OC)cc2)C[C@@H]1C 0.562 µM [activator, full curve, poor fit]
CC(C)c1ccccc1OCC(=O)Nc1ccc2[nH]ncc2c1 22.4 µM [activator, single point]
COc1ccc(CCNC(=O)C2CCCN(c3nc4c(C)cc(C)cc4s3)C2)cc1OC (stereo not given) 11.2 µM [activator, partial curve]
Nc1ccc(Cl)cc1C(=O)c1ccc[nH]1 11.2 µM [activator, partial curve]
C=CCOC(=O)C1=C[C@H](c2ccc(C(F)(F)F)cc2)C[C@H](OCCCCO)O1 20 µM [activator, partial curve]
O=C(N/N=C(\CC(=O)c1cccs1)C(F)(F)F)c1cccnc1 7.94 µM [activator, partial curve]
COCCCNC(=O)c1ccc2c(=O)n(Cc3ccc(OC)cc3)c(=O)[nH]c2c1 0.501 µM [activator, full curve, poor fit]
CCCOC1CCCN(C(=O)CCc2nnc(CCCCc3ccccc3)o2)C1 (stereo not given) 31.6 µM [activator, partial curve]
CCOC(=O)c1ccccc1NC(=O)CSc1ccc(-c2ccccn2)nn1 22.4 µM [activator, single point]
O=C(COc1ccccc1)N(Cc1cccnc1)c1nc2ccc(F)cc2s1 35.5 µM [activator, single point]
COc1cc(NC(=O)c2cnc(N)s2)cc(C(=O)Nc2cccc(C(F)(F)F)c2)c1 35.5 µM [activator, partial curve]
COc1ccc(C(=O)OCC(=O)c2ccco2)cc1[N+](=O)[O-] 10 µM [activator, partial curve, poor fit]
Fc1cccc(-n2cc(-c3ccccc3)c3c(=S)nc[nH]c32)c1 15.8 µM [activator, single point]
Cc1nc(N)nc(-c2ccccc2O)n1 14.1 µM [activator, partial curve]
COC(=O)c1c(C)oc2ccc(N(C(=O)c3ccncc3)S(=O)(=O)c3ccc(C)cc3)cc12 31.6 µM [activator, single point]

Growth rescue (activation), inconclusive:
CC1=C(C(=O)Nc2cccnc2)C(c2ccccc2)n2nc(-c3ccc(O)cc3)nc2N1 (stereo not given) 37.4% [activator] [at 9.22 µM]

Growth rescue (activation), inactive:
O=C(NCc1ccc(F)cc1)c1c(O)nc2ccccn2c1=O -34.5%
COc1ccc(NC(=O)COC(=O)/C=C/c2cccs2)c(OC)c1 13.8%
Cc1ccc(-n2ncc3c(NCCCn4ccnc4)ncnc32)c(C)c1 9.5%
Cc1ccc(S(=O)(=O)C(CNC(=O)c2ccccc2F)c2cccs2)cc1 (stereo not given) 0% [at 9.22 µM]
COc1ccc(NC(=O)c2ccc3c(=O)n4nc(Nc5cccc(Cl)c5C)sc4nc3c2)cc1 18.1%
CNC(=O)C1CCC(Cn2c(=O)c3sccc3n(CC(=O)NCc3ccc(F)cc3)c2=O)CC1 (stereo not given) 9.48%
CCn1nccc1C(=O)Nc1ccc(Cl)cn1 29.8%
Cc1ccc2nc(SC(C)C(=O)NC3CCCc4ccccc43)[nH]c2c1 (stereo not given) 25.6%
